B1: ShAb02a (ShAb02 VNAR-3c-Fc) (Fc fusion)
chain: ARVDQTPQTITKETGESLTINCVLRDSNCALASTDWYRKKSGSTNEESISKGGRYVETVNSGSKSFSLRINDLTVEDSGTYRCNAWDSWETRQLKCDYDVYGGGTVVTVNSREPKSCDKGLEVLFQ[no letters for human IgG1 Fc and a few adjoining residues]
B2: ShAb04a (ShAb04 VNAR-3c-Fc) (Fc fusion)
chain: ARVDQTPQTITKETGESLTINCGLRDSNCALSSTYWYRKKSGSTNEESISKGGRYVETVNSGPLTFSLRINDLTVEDSGTYRCKVSCLAIPIGPHYDVYGGGTVVTVNSREPKSCDKGLEVLFQ[no letters for human IgG1 Fc and a few adjoining residues]
B3: ShAb18a (ShAb18 VNAR-3c-Fc) (Fc fusion)
chain: ARVDQTPRSVTKETGESLTINCVLREARYELGKTCWYRKRAGSTNEESISAGGRYVETVISGSKSFSLRINDLTVEDGGTYRCGVPPAGWCSKVSCDHVGAGVLEPAACGGGTVVTVNSREPKSCDKGLEVLFQ[no letters for human IgG1 Fc and a few adjoining residues]
B4: ShAb01a (ShAb01 VNAR-3c-Fc) (Fc fusion)
chain: ARVDQTPRSVTKETGESLTINCVLRDSNCALSSTHWYRKKSGSTNEERILQGRRYVETVNSGSKSFSLRINDLRVEDSGTYRCKVYWGNSWQDKFCPGLGSYEYGDGTAVTVNSREPKSCDKGLEVLFQ[no letters for human IgG1 Fc and a few adjoining residues]
B5: ShAb09a (ShAb09 VNAR-3c-Fc) (Fc fusion)
chain: ARVDQTPQTITKETGESLTIDCVLRDSNCALSSTHWYRKKSGSTNEERILQGRRYVETVNSGSKSFSLRINDLRVEDSGTYRCKVYWGNSWQDKFCPGLGSYEYGGGTVVTVNSREPKSCDKGLEVLFQ[no letters for human IgG1 Fc and a few adjoining residues]
B6: ShAb19a (ShAb19 VNAR-3c-Fc) (Fc fusion)
chain: ARVDQTPQTITKATGESLTINCVLRDASYALGRTCWYRKKSGSTNEESISLGGRYVETVNSGSKSFSLRINDLTVEDGGTYRCGAHRWWTVCGMPAPYAESGGGTVVTVNSREPKSCDKGLEVLFQ[no letters for human IgG1 Fc and a few adjoining residues]
B7: ShAb21a (ShAb21 VNAR-3c-Fc) (Fc fusion)
chain: ARVDQTPRSVTKETGESLTINCVLREARYELGRTCWYRKKSGSRNEESISEGGRYVETVNSGSKSFSLRINDLTVEDGGTYRCGVPAAGWCPERCAPDPPYAVCGGGTVVTVNSREPKSCDKGLEVLFQ[no letters for human IgG1 Fc and a few adjoining residues]
B8: ShAb22a (ShAb22 VNAR-3c-Fc) (Fc fusion)
chain: ARVDQTPQTITKETGESLTINCVLRDNNCALSSTYWYREKSGSTNLESISLGGRYVETVNSGSKSFSLRINDLTVEDSGTYRCKVWGNEGSYDCGLESAVYGGGTVVTVNSREPKSCDKGLEVLFQ[no letters for human IgG1 Fc and a few adjoining residues]
B9: ShAb23a (ShAb23 VNAR-3c-Fc) (Fc fusion)
chain: ARVDQTPQTITKETGESLTINCVLRDSNCALGSTYWYRKKSGSTNEENISKGGRYVETVRSGSKSLSLRINDLTVEDSGTYRCKVSRLSWYPESRWNCDNYDVYGDGTAVTVNSREPKSCDKGLEVLFQ[no letters for human IgG1 Fc and a few adjoining residues]
B10: ShAb24a (ShAb24 VNAR-3c-Fc) (Fc fusion)
chain: ARVDQTPQTITKETGESLTINCVLRDSNCPLSSTYWYRKKSGSTNEESIPKAGRYVETVNHGSKSFSLRINDLTVEDSGTYRCKTASNVCRSGGRTSYHYDVYGDGTAVTVNSREPKSCDKGLEVLFQ[no letters for human IgG1 Fc and a few adjoining residues]
B11: ShAb29a (ShAb29 VNAR-3c-Fc) (Fc fusion)
chain: ARVDQTPQTITKETGESLTINCVLRDSNCALSRTYWYRKKSGSTDEESISKGGRYVETVNSGSKSFSLRINDLTVEDSGTYRCNVYSWYGGDHNSWDWRSDPAMVCGDVYGGGTVVTVNSREPKSCDKGLEVLFQ[no letters for human IgG1 Fc and a few adjoining residues]
B12: ShAb05a (ShAb05 VNAR-3c-Fc) (Fc fusion)
chain: ARVDQTPQTITKETGESLTINCVVRDSNCALGSTYWYRKKSGSTNEESITKGGRSVETVNSGSKSFSLRINDLTVEDSGTYRCKVLSIGWHDPMGLRGCDVYGGGTVVTVNSREPKSCDKGLEVLFQ[no letters for human IgG1 Fc and a few adjoining residues]
B13: ShAb06a (ShAb06 VNAR-3c-Fc) (Fc fusion)
chain: ARVDQTPRSVTKETGESLTINCVLRDASYALGSTCWYRKKSGSTNEESISKGGRYVETVNSGSKSFSLRINDLTVEDGGTYRCGVGRGLGVGCDYPLCSYSYAACGDGTAVTVNSREPKSCDKGLEVLFQ[no letters for human IgG1 Fc and a few adjoining residues]
B14: ShAb07a (ShAb07 VNAR-3c-Fc) (Fc fusion)
chain: ARVDQTPQTITKETGESLTINCVLRDASYALGSTCWYRKKSGSTNWESIGKGGRYVETVNSGSKSFSLRINDLTVEDGGTYRCGVGRGAGVGCDYPLCSYSYAACGGGTVVTVNSREPKSCDKGLEVLFQ[no letters for human IgG1 Fc and a few adjoining residues]
B15: ShAb08a (ShAb08 VNAR-3c-Fc) (Fc fusion)
chain: ARVDQTPKTITKETGESLTINCVLRDSNCAASSTYWYRKKSGSNNEESISKGGRYVETVNSGSKSFSLRINDLTVEDSGTYRCNVEGYSCGLYSVEDYYGGGTVVTVNSREPKSCDKGLEVLFQ[no letters for human IgG1 Fc and a few adjoining residues]
B16: ShAb10a (ShAb10 VNAR-3c-Fc) (Fc fusion)
chain: ARVDQTPQTITKETGESLTINCVLRDSNCALSSTYWYRKKSGSTNEESISKGGRYVETVNSGSKSFSLRINDLTVEDSGTYRCHVRLRYDCESVIDFRVYGGGTVVTVNSREPKSCDKGLEVLFQ[no letters for human IgG1 Fc and a few adjoining residues]
B17: ShAb11a (ShAb11 VNAR-3c-Fc) (Fc fusion)
chain: ARVDQTPQTITKETGESLTINCVLRDSNCTLSRTYWYRKKSGSTNLESISKGGRYVETVNSGSKSFSLRINDLTVEDSGTYRCASKIRYDCQGIIAYDIYGGGTVVTVNSREPKSCDKGLEVLFQ[no letters for human IgG1 Fc and a few adjoining residues]
B18: ShAb12a (ShAb12 VNAR-3c-Fc) (Fc fusion)
chain: ARVDQTPRSVTKETGESLTINCVLRDTNCPLYAAYWYRKSPGSTNEETIWATGRYVQTVNSGLKTFSLRINDLTSEDSGTYRCNGQTWCPATKNNDISGGGTVVTVNSREPKSCDKGLEVLFQ[no letters for human IgG1 Fc and a few adjoining residues]
B19: ShAb13a (ShAb13 VNAR-3c-Fc) (Fc fusion)
chain: ARVDQTPRSVTKETGESLTINCVLRDASYALGSTCWYRKKSGSTNEERISKGGRYVETVNSGSKSFSLRINDLTVEDGGTYRCGVWPGYNWCGSCDYRGDYNFCGDGTAVTVNSREPKSCDKGLEVLFQ[no letters for human IgG1 Fc and a few adjoining residues]

These binders were tested against SARS-CoV-2 Beta (B.1.351) Spike on pseudovirions (SARS-CoV-2) (assay: cell-based or functional assay).
B1 was tested, and the “pseudovirus neutralization IC50” value was 0.043 µg/mL and the “pseudovirus neutralization IC80” value was 0.301 µg/mL. In the case of B2, the “pseudovirus neutralization IC50” value is reported as 37 µg/mL and the “pseudovirus neutralization IC80” value is reported as greater than 50 µg/mL. B3 was tested, and the “pseudovirus neutralization IC50” value was 0.494 µg/mL and the “pseudovirus neutralization IC80” value was 1.83 µg/mL. With B4 the “pseudovirus neutralization IC50” value was 0.457 µg/mL. B5 was tested, and the “pseudovirus neutralization IC50” value was 1.28 µg/mL. For B6, the “pseudovirus neutralization IC50” value was 2.13 µg/mL and the “pseudovirus neutralization IC80” value was greater than 5 µg/mL. B7 was tested, and the “pseudovirus neutralization IC50” value was 0.676 µg/mL and the “pseudovirus neutralization IC80” value was greater than 2 µg/mL. With B8 the “pseudovirus neutralization IC50” value was 1.3 µg/mL and the “pseudovirus neutralization IC80” value was 3.22 µg/mL. With B9 the “pseudovirus neutralization IC50” value was 0.024 µg/mL and the “pseudovirus neutralization IC80” value was 0.104 µg/mL. With B10 the “pseudovirus neutralization IC50” value was 2.3 µg/mL and the “pseudovirus neutralization IC80” value was greater than 5 µg/mL. For B11, the “pseudovirus neutralization IC50” value was 3 µg/mL and the “pseudovirus neutralization IC80” value was greater than 5 µg/mL. In the case of B12, the “pseudovirus neutralization IC50” value is reported as greater than 50 µg/mL and the “pseudovirus neutralization IC80” value is reported as greater than 50 µg/mL. For B13, the “pseudovirus neutralization IC50” value was 27.2 µg/mL and the “pseudovirus neutralization IC80” value was greater than 50 µg/mL. For B14, the “pseudovirus neutralization IC50” value was greater than 50 µg/mL and the “pseudovirus neutralization IC80” value was greater than 50 µg/mL. For B15, the “pseudovirus neutralization IC50” value was greater than 50 µg/mL and the “pseudovirus neutralization IC80” value was greater than 50 µg/mL. With B16 the “pseudovirus neutralization IC50” value was 8.15 µg/mL and the “pseudovirus neutralization IC80” value was 28.6 µg/mL. With B17 the “pseudovirus neutralization IC50” value was 22.2 µg/mL and the “pseudovirus neutralization IC80” value was 44.8 µg/mL. B18 was tested, and the “pseudovirus neutralization IC50” value was 17.3 µg/mL and the “pseudovirus neutralization IC80” value was greater than 50 µg/mL. For B19, the “pseudovirus neutralization IC50” value was 20.2 µg/mL and the “pseudovirus neutralization IC80” value was greater than 50 µg/mL.

The binders below were run against SARS-CoV-2 Alpha (B.1.1.7) Spike on pseudovirions (SARS-CoV-2) (assay: cell-based or functional assay).
In the case of B1, the “pseudovirus neutralization IC50” value is reported as less than 0.023 µg/mL and the “pseudovirus neutralization IC80” value is reported as 0.028 µg/mL. B2 was tested, and the “pseudovirus neutralization IC50” value was 18.6 µg/mL and the “pseudovirus neutralization IC80” value was greater than 50 µg/mL. With B3 the “pseudovirus neutralization IC50” value was 0.196 µg/mL and the “pseudovirus neutralization IC80” value was 2.22 µg/mL. For B4, the “pseudovirus neutralization IC50” value was 0.463 µg/mL. B5 was tested, and the “pseudovirus neutralization IC50” value was 0.785 µg/mL. B6 was tested, and the “pseudovirus neutralization IC50” value was 4.13 µg/mL and the “pseudovirus neutralization IC80” value was greater than 5 µg/mL. In the case of B7, the “pseudovirus neutralization IC50” value is reported as 1.36 µg/mL and the “pseudovirus neutralization IC80” value is reported as greater than 2 µg/mL. In the case of B8, the “pseudovirus neutralization IC50” value is reported as 0.525 µg/mL and the “pseudovirus neutralization IC80” value is reported as 0.97 µg/mL. For B9, the “pseudovirus neutralization IC50” value was 0.29 µg/mL and the “pseudovirus neutralization IC80” value was 1.18 µg/mL. For B10, the “pseudovirus neutralization IC50” value was 2.1 µg/mL and the “pseudovirus neutralization IC80” value was greater than 5 µg/mL. For B11, the “pseudovirus neutralization IC50” value was 3.3 µg/mL and the “pseudovirus neutralization IC80” value was greater than 5 µg/mL. B12 was tested, and the “pseudovirus neutralization IC50” value was 31 µg/mL and the “pseudovirus neutralization IC80” value was greater than 50 µg/mL. In the case of B13, the “pseudovirus neutralization IC50” value is reported as 6.81 µg/mL and the “pseudovirus neutralization IC80” value is reported as 36.3 µg/mL. In the case of B14, the “pseudovirus neutralization IC50” value is reported as 13.7 µg/mL and the “pseudovirus neutralization IC80” value is reported as greater than 50 µg/mL. With B15 the “pseudovirus neutralization IC50” value was 10.5 µg/mL and the “pseudovirus neutralization IC80” value was greater than 50 µg/mL. B16 was tested, and the “pseudovirus neutralization IC50” value was 0.416 µg/mL and the “pseudovirus neutralization IC80” value was 2.89 µg/mL. For B17, the “pseudovirus neutralization IC50” value was 1.84 µg/mL and the “pseudovirus neutralization IC80” value was 25.8 µg/mL. B18 was tested, and the “pseudovirus neutralization IC50” value was 3.95 µg/mL and the “pseudovirus neutralization IC80” value was 14.3 µg/mL. B19 was tested, and the “pseudovirus neutralization IC50” value was 13.4 µg/mL and the “pseudovirus neutralization IC80” value was greater than 50 µg/mL.

From patent publication US20230331823A1 (HENRY M JACKSON FOUNDATION FOR THE ADVANCEMENT OF MILITARY …, published 2023)
